According to PubChem BioAssay AID504706 (National Center for Advancing Translational Sciences (NCATS), 2011):
Screen size: about 320,000 compounds; about 200 (0.062%) were called active. Inconclusive results, whose numbers are uncertain, are shown with a selection of clear calls. Calls come from the whole dose curve; as a rule, active = well fitted activation curve with a large enough effect; inconclusive = small, poorly fitted or top-dose-only effect; inactive = no such curve, though single readings can be large or run the other way. No potency is given beside an inconclusive call; the fits are too rough.

assay: qHTS assay for re-activators of p53 using a Luc reporter; conditions: H1299 p53-A138V BP100-luciferase reporter, luminescence, 24 h; series mostly up to 92.2 µM; note: nearly all actives have a fitted effect of over 45% in size
Summary of the method: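 p53-null H1299 cells stably carrying temperature-sensitive p53-A138V and a BP100-luciferase reporter were pinned with compounds (4-point, 1:5 series) and held 24 hrs at 37 deg C. Luminescence was read 10 min after detection reagent.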
Potency is the fitted concentration of half-maximal effect; tags give direction and shape of the fitted curve.

| Structure (SMILES) | Potency |
| --- | --- |
| COc1ccc(-c2ccc3ccccc3n2)cc1 | inactive |
| Cc1nn(-c2ccccc2)c(N)c1Sc1cccc([N+](=O)[O-])c1 | inactive |
| COc1ccc2oc(=O)c(C(=O)NCC3CCCO3)cc2c1 (stereo not given) | inconclusive [activator, single point] |
| CCCCc1c(C)c2ccc(OCC(C)=O)cc2oc1=O | inconclusive [activator, partial curve, poor fit] |
| CCOC(=O)N(Cc1ccccc1)C(C(=O)O)C(C(=O)O)N(Cc1ccccc1)C(=O)OCC (stereo not given) | inconclusive [activator, partial curve, poor fit] |
| N#Cc1cc2c(=O)n3ccccc3nc2n(CCCn2ccnc2)c1=N | inactive |
| Cc1ccc(C(=O)Nc2ncc(Cc3ccc(F)cc3)s2)o1 | inconclusive [activator, partial curve, poor fit] |
| Cc1ccn2cc(-c3cccc(NC(=O)c4ccccc4)c3)nc2c1 | inconclusive [activator, full curve, poor fit] |
| O=C(COC(=O)c1cc2ccccc2cc1O)NCc1ccccc1 | inactive |
| C/C(=N\NC(=O)c1ccccc1F)c1ccc(C#N)cc1 | inconclusive [activator, single point] |
| CCOc1ccccc1/C=N/n1c(C2CCCCC2)n[nH]c1=S | inactive |
| CCn1ccc(C(=O)NC2=NCCS2)n1 | inconclusive [activator, partial curve, poor fit] |
| O=C(/C=C/c1cccc(Cl)c1)N1CCC(Cc2ccccc2)CC1 | inconclusive [activator, partial curve, poor fit] |
| CCOc1ccccc1-c1nc(-c2ccc(C)nc2OC)no1 | inconclusive [activator, partial curve, poor fit] |
| Cc1ccc(-n2ncc3c(NCc4ccco4)ncnc32)cc1C | inconclusive [activator, full curve, poor fit] |
| CCCOc1ccc2c(C)c(CC(=O)OC)c(=O)oc2c1 | inconclusive [activator, partial curve, poor fit] |
| C/C(Cn1nnc([N+](=O)[O-])n1)=N\NC(=O)c1ccc(O)cc1O | inconclusive [activator, partial curve, poor fit] |
| CC(C)CN(CC(C)C)C(=O)COc1ccccc1C(N)=O | inactive |
| Cc1ccc(/C=C/C(=O)Nc2ccccc2C(N)=O)cc1 | inconclusive [activator, partial curve, poor fit] |
| CCC(CC)=NNc1cccc([N+](=O)[O-])c1 | inconclusive [activator, single point] |
| O=C(CSc1n[nH]c(-c2ccccn2)n1)Nc1ccc(F)cc1 | inconclusive [activator, partial curve, poor fit] |
| COc1ccc(N(C)C(=O)CN(C)S(=O)(=O)c2ccc3c(c2)c(=O)n(C)c(=O)n3C)c(OC)c1 | inactive |
| Cc1ccc(NC(=S)NNC(=O)Nc2ccccc2)cc1 | inconclusive [activator, single point] |
| CC(=O)Oc1ccc(-c2csnn2)cc1 | inactive |

| Structure (SMILES) | Potency |
| --- | --- |
| COc1ccc(-c2nnc(SC(C)C#N)o2)cc1 (stereo not given) | inconclusive [activator, partial curve, poor fit] |
| CC(=O)c1c(C)[nH]c(C(=O)OCCOc2ccccc2)c1C | inactive |
| O=C(Nn1c(C2CCCCC2)nc2ccccc2c1=O)c1ccc(Cl)c([N+](=O)[O-])c1 | inactive |
| Cc1cccc(NC(=O)Nc2ccc(F)cc2)n1 | inconclusive [activator, single point] |
| Cc1nc2cc(C(=O)O)ccc2s1 | inconclusive [activator, partial curve, poor fit] |
| c1ccc(-c2nnc(-c3ccco3)o2)cc1 | inconclusive [activator, full curve] |
| CCc1ccc(CNc2ccc3c(c2)ncn3CC)cc1 | inconclusive [activator, partial curve, poor fit] |
| O=C(Nc1ncccc1O)c1ccc(NS(=O)(=O)c2ccc3[nH]c(=O)[nH]c3c2)cc1 | inconclusive [activator, partial curve, poor fit] |
| CC1CC(CC(=O)Nc2nc(-c3ccccc3)cs2)C(=O)O1 (stereo not given) | inconclusive [activator, single point] |
| CCN1CCN(c2cc(C)c3cc(NC(=S)N4CCCC(C)C4)ccc3n2)CC1 (stereo not given) | inconclusive [activator, partial curve, poor fit] |
| COc1cccc(/C=N/n2c(=O)[nH]c3ccccc32)c1OC | inactive |
| CCN(CC)S(=O)(=O)c1ccc(C(=O)NN(C)C2=NS(=O)(=O)c3ccccc32)cc1 | inconclusive [activator, single point] |
| CCOC(=O)Cc1nnc(NC(=O)c2ccco2)s1 | inconclusive [activator, partial curve, poor fit] |
| O=C(CN1CCN(CC(=O)Nc2ccc(-c3ccccc3)cc2)CC1)Nc1ccc(F)cc1 | inconclusive [activator, partial curve, poor fit] |
| O=C(c1cc(-c2ccco2)on1)N1CCOCC1 | inconclusive [activator, full curve, poor fit] |
| COc1ccc(-c2nnc(N(C)C(=O)c3cccnc3)s2)cc1 | inconclusive [activator, partial curve, poor fit] |
| Cn1cnnc1SCC(=O)Nc1ccc(Cl)cc1 | inconclusive [activator, partial curve, poor fit] |
| O=C(Nc1nc2c(s1)CCCC2)c1cccnc1 | inconclusive [activator, partial curve, poor fit] |
| CCN(CC)CCOc1cc2c(nn1)Oc1ccccc1N2C | inactive |
| COc1cc(NC(=O)CN2C(=O)c3ccccc3C2=O)c(C(=O)O)cc1OC | inconclusive [activator, single point] |
| C/C(=N\Nc1ccc([N+](=O)[O-])cc1)c1ccco1 | inconclusive [activator, partial curve, poor fit] |
| COCCn1c(C)cc(/C=N/NC(=O)c2cc3ccccc3cc2O)c1C | inactive |
| COc1cc(CCN2C(=O)c3cccc4cccc(c34)C2=O)c(S(=O)(=O)N2CCC(C)CC2)cc1OC | inactive |
| CCOc1ccc(N(Cc2cc3ccc(C)cc3[nH]c2=O)S(=O)(=O)c2ccccc2)cc1 | inactive |

| Structure (SMILES) | Potency |
| --- | --- |
| Cc1cc2nc(N3CCN(C(=O)c4cccs4)CC3)sc2cc1C | inactive |
| CCNc1nc(Sc2ccc(C)cc2)cc(C(F)(F)F)n1 | inactive |
| COc1ccc(-n2nc([N+](=O)[O-])c(=NC3CCN(Cc4ccccc4)CC3)n2O)cc1 | inconclusive [activator, partial curve, poor fit] |
| Cc1ccc(NC(=O)CCOc2ccccc2)cc1 | inconclusive [activator, full curve, poor fit] |
| CC(=O)Nc1sc(C)c(C)c1C(=O)OCCOc1ccccc1 | inconclusive [activator, partial curve] |
| O=C(c1ccc(F)cc1)c1cc2ccccc2o1 | inconclusive [activator, partial curve, poor fit] |
| CC1CC1C(=O)OCC(=O)Nc1ccc(N=Nc2ccccc2)cc1 (stereo not given) | inconclusive [activator, partial curve, poor fit] |
| Cc1cc2nc(-c3ccc[nH]c3=O)n(Cc3cccc(F)c3)c2cc1C | inactive |
| C=CCn1c(SCC(=O)Nc2nnc(CC)s2)nnc1-c1ccncc1 | inactive |
| O=C1/C(=C/c2cccc([N+](=O)[O-])c2)CCc2ccccc21 | inconclusive [activator, partial curve] |
| COc1cc(NC(=O)C2CC(c3c(F)cccc3Cl)=NO2)c(OC)cc1Cl (stereo not given) | inconclusive [activator, single point] |
| CN(C(=O)CN1C(=O)c2ccccc2S1(=O)=O)C1CCCCC1 | inconclusive [activator, full curve, poor fit] |
| Cn1cnnc1SCC(=O)c1c[nH]c2ccccc12 | inconclusive [activator, partial curve, poor fit] |
| Cc1cc(/C=C(\C#N)C(=O)Nc2ccccc2)c(C)n1-c1cccnc1 | inconclusive [activator, partial curve, poor fit] |
| CCN1C(=O)c2cccc3c(NC(=O)c4ccc(S(=O)(=O)N5CCOCC5)cc4)ccc1c23 | inactive |
| Nc1ncnc2c1ncn2C1O[C@H](CO)[C@@H](O)[C@@H]1O (stereo not given in full) | inactive |
| Cc1ccc(Nc2nc(N)nc(CSc3ncccn3)n2)cc1 | inconclusive [activator, partial curve, poor fit] |
| COCCn1c(SC(C)C(=O)Nc2ncc(Cl)cc2Cl)nc2ccccc21 (stereo not given) | inactive |
| CCOC(=O)c1ccccc1NC(=O)N1CCn2c(C)ccc2C1CC (stereo not given) | inactive |
| Cc1ccnc(NC(=O)c2ccc(Cl)s2)c1 | inconclusive [activator, partial curve, poor fit] |
| Cc1ccc(N=C/C(C(=O)C(F)(F)F)=C(\O)c2ccco2)cc1Cl | inconclusive [activator, partial curve, poor fit] |
| Fc1ccc2c(Cl)c(-c3nnc(-c4cccs4)o3)sc2c1 | inconclusive [activator, partial curve, poor fit] |
